Experimental data published in US10299477B2 (priority 2015, dated 2019).

Columns and labels:
Magnaporthe grisea = format: in vivo; details: for Test A (control value class, blast on rice): in vivo
Phytophthora infestans = format: in vivo; details: for Test F (control value class): 250 ppm spray; for Test F control value: 250 ppm sprayed before inoculation; for Test F (control value class, late blight on tomato): 250 ppm, sprayed 2.5 ml/pot before inoculation
[1] = rice blast, Magnaporthe grisea, 250 ppm spray
[2] = late blight on tomato, Phytophthora infestans, 5-10 days after inoculation
[3] = Late blight on tomato, 5-10 days after inoculation
[4] = evaluated 5-10 days after inoculation
[5] = Blast on rice, control value=100{1-(n/3)}
[6] = Late blight on tomato, 2.5 ml/pot, evaluated 5-10 days after inoculation

Row | SMILES | Test A (control value class) (Magnaporthe grisea; [1]) | Test F (control value class) (Phytophthora infestans; [2]) | also measured
1 | Cn1c(-c2c(F)cccc2F)c(-c2cccc(F)c2F)ccc1=O [Compound 535] | H (H shows more than 50% of control values) | L (L shows 50% or less of control values) | –
2 | O=c1c(Br)cc(-c2cc(F)ccc2Cl)c(-c2c(F)cccc2F)n1CC(F)F [Compound 393] | H (H shows more than 50% of control values) | L (L shows 50% or less of control values) | –
3 | Cn1c(-c2c(F)cccc2F)c(-c2ccccc2F)cc(Cl)c1=O [Compound 144] | – | – | Test A control value (Magnaporthe grisea; Blast on rice): H (H shows more than 50% of control values); Test F control value (Phytophthora infestans; [3]): L (L shows 50% or less of control values)
4 | CCOc1cc(F)c(-c2c(-c3cc(F)cc(F)c3F)ccc(=O)n2CC)c(F)c1 [Compound 579] | – | – | Test A (control value class, blast on rice) (Magnaporthe grisea): H (H shows more than 50% of control values); Test F (control value class, late blight on tomato) (Phytophthora infestans; [4]): L (L shows 50% or less of control values)
5 | CCn1c(-c2c(F)cccc2F)c(-c2cc(Cl)cc(Cl)c2Cl)cc(Cl)c1=O [Compound 451] | H (H shows more than 50% of control values) | L (L shows 50% or less of control values) | –
6 | CCn1c(-c2c(F)cc(F)cc2F)c(-c2ccccc2Cl)ccc1=O [Compound 420] | H (H shows more than 50% of control values) | H (H shows more than 50% of control values) | –
7 | COc1cc(F)c(-c2c(-c3cccc(F)c3Cl)cc(Cl)c(=O)n2C)c(F)c1 [Compound 504] | H (H shows more than 50% of control values) | L (L shows 50% or less of control values) | –
8 | COc1cc(F)c(-c2c(-c3cc(F)cc(F)c3Br)ccc(=O)n2C)c(F)c1 [Compound 823] | – | – | Test A (control value class) (Magnaporthe grisea; [5]): H (H shows more than 50% of control values); Test F (control value class) (Phytophthora infestans; [6]): L (L shows 50% or less of control values)
9 | Cn1c(-c2c(F)cccc2F)c(-c2cc(Cl)ccc2Cl)ccc1=O [Compound 446] | H (H shows more than 50% of control values) | L (L shows 50% or less of control values) | –
10 | CCn1c(-c2c(F)cc(OC)cc2F)c(-c2ccccc2Cl)cc(Cl)c1=O [Compound 434] | H (H shows more than 50% of control values) | L (L shows 50% or less of control values) | –
11 | CCn1c(-c2c(F)cc(F)cc2F)c(-c2cc(F)ccc2Cl)cc(Br)c1=O [Compound 381, 3-bromo-5-(2-chloro-5-fluorophenyl)-1-ethyl-6-(2,4,6-trifluorophenyl)pyridine-2(1H)-one] | H (H shows more than 50% of control values) | L (L shows 50% or less of control values) | –
12 | O=c1ccc(-c2cc(Cl)cc(Cl)c2Cl)c(-c2c(F)cccc2F)n1CC(F)F [Compound 454] | H (H shows more than 50% of control values) | L (L shows 50% or less of control values) | –
13 | COc1cc(F)c(-c2c(-c3cccc(F)c3F)cc(C)c(=O)n2C)c(F)c1 [Compound 565] | – | – | Test A (control value class, blast on rice) (Magnaporthe grisea): H (H shows more than 50% of control values); Test F (control value class, late blight on tomato) (Phytophthora infestans; [4]): L (L shows 50% or less of control values)
14 | CCn1c(-c2c(F)cc(OC)cc2F)c(-c2cc(F)ccc2Cl)ccc1=O [Compound 382] | H (H shows more than 50% of control values) | L (L shows 50% or less of control values) | –
15 | CCn1c(-c2c(F)cccc2F)c(-c2cc(OCOC)ccc2Cl)cc(Cl)c1=O [Compound 127, 3-chloro-5-(2-chloro-5-(methoxymethoxy)phenyl)-6-(2,6-difluorophenyl)-1-ethylpyridine-2(1H)-one] | – | – | Test A control value (Magnaporthe grisea; Blast on rice): H (H shows more than 50% of control values); Test F control value (Phytophthora infestans; [3]): L (L shows 50% or less of control values)
16 | Cn1c(-c2c(F)cccc2F)c(-c2cccc(F)c2)cc(Br)c1=O [Compound 170] | – | – | Test A control value (Magnaporthe grisea; Blast on rice): H (H shows more than 50% of control values); Test F control value (Phytophthora infestans; [3]): L (L shows 50% or less of control values)
17 | CCn1c(-c2c(F)cccc2F)c(-c2cccc(F)c2)cc(Cl)c1=O [Compound 154] | – | – | Test A control value (Magnaporthe grisea; Blast on rice): H (H shows more than 50% of control values); Test F control value (Phytophthora infestans; [3]): L (L shows 50% or less of control values)
18 | CCn1c(-c2c(F)cc(OC)cc2F)c(-c2cc(F)ccc2Cl)cc(C)c1=O [Compound 479] | H (H shows more than 50% of control values) | L (L shows 50% or less of control values) | –
19 | Cc1ccccc1-c1cc(Br)c(=O)n(C)c1-c1c(F)cccc1F [Compound 182] | – | – | Test A control value (Magnaporthe grisea; Blast on rice): H (H shows more than 50% of control values); Test F control value (Phytophthora infestans; [3]): L (L shows 50% or less of control values)

Row | SMILES | Test A (control value class) (Magnaporthe grisea; [1]) | Test F (control value class) (Phytophthora infestans; [2]) | also measured
20 | CCCn1c(-c2c(F)cccc2F)c(-c2cc(OC)ccc2Cl)cc(Cl)c1=O [Compound 400] | H (H shows more than 50% of control values) | L (L shows 50% or less of control values) | –
21 | CCn1c(-c2c(F)cc(F)cc2F)c(-c2ccc(F)cc2Cl)cc(Cl)c1=O [Compound 577] | – | – | Test A (control value class, blast on rice) (Magnaporthe grisea): H (H shows more than 50% of control values); Test F (control value class, late blight on tomato) (Phytophthora infestans; [4]): L (L shows 50% or less of control values)
22 | COc1cc(F)c(-c2c(-c3ccccc3F)ccc(=O)n2C)c(F)c1 [Compound 544] | H (H shows more than 50% of control values) | L (L shows 50% or less of control values) | –
23 | CCn1c(-c2c(F)cc(OC)cc2F)c(-c2ccccc2F)cc(C)c1=O [Compound 569] | – | – | Test A (control value class, blast on rice) (Magnaporthe grisea): H (H shows more than 50% of control values); Test F (control value class, late blight on tomato) (Phytophthora infestans; [4]): L (L shows 50% or less of control values)
24 | Cn1c(-c2c(F)cc(F)cc2F)c(-c2ccccc2Cl)cc(Cl)c1=O [Compound 432] | H (H shows more than 50% of control values) | H (H shows more than 50% of control values) | –
25 | Cn1c(-c2c(F)cc(F)cc2F)c(-c2cc(F)cc(F)c2Br)cc(Cl)c1=O [Compound 816] | – | – | Test A (control value class) (Magnaporthe grisea; [5]): H (H shows more than 50% of control values); Test F (control value class) (Phytophthora infestans; [6]): L (L shows 50% or less of control values)
26 | Cn1c(-c2c(F)cccc2F)c(-c2ccc(Cl)cc2F)ccc1=O [Compound 418] | H (H shows more than 50% of control values) | L (L shows 50% or less of control values) | –
27 | CCn1c(-c2c(F)cccc2Cl)c(-c2cc(OC)cc(OC)c2Br)ccc1=O [Compound 151] | – | – | Test A control value (Magnaporthe grisea; Blast on rice): H (H shows more than 50% of control values); Test F control value (Phytophthora infestans; [3]): L (L shows 50% or less of control values)
28 | CCn1c(-c2c(F)cc(F)cc2F)c(-c2cccc(F)c2Cl)cc(Cl)c1=O [Compound 488] | H (H shows more than 50% of control values) | L (L shows 50% or less of control values) | –
29 | CCOc1ccc(Cl)c(-c2cc(C)c(=O)n(CC)c2-c2c(F)cccc2F)c1 [Compound 802] | – | – | Test A (control value class) (Magnaporthe grisea; [5]): H (H shows more than 50% of control values); Test F (control value class) (Phytophthora infestans; [6]): L (L shows 50% or less of control values)
30 | CCn1c(-c2c(F)cc(F)cc2F)c(-c2cc(F)cc(F)c2Br)cc(Br)c1=O [Compound 814] | – | – | Test A (control value class) (Magnaporthe grisea; [5]): H (H shows more than 50% of control values); Test F (control value class) (Phytophthora infestans; [6]): L (L shows 50% or less of control values)
31 | COc1cc(F)c(-c2c(-c3cc(F)cc(F)c3Br)cc(Br)c(=O)n2C)c(F)c1 [Compound 825] | – | – | Test A (control value class) (Magnaporthe grisea; [5]): H (H shows more than 50% of control values); Test F (control value class) (Phytophthora infestans; [6]): L (L shows 50% or less of control values)
32 | CCn1c(-c2c(F)cc(OC)cc2F)c(-c2cccc(F)c2Cl)ccc1=O [Compound 489] | H (H shows more than 50% of control values) | H (H shows more than 50% of control values) | –
33 | CCn1c(-c2c(F)cc(F)cc2F)c(-c2cccc(F)c2Cl)ccc1=O [Compound 486] | H (H shows more than 50% of control values) | H (H shows more than 50% of control values) | –
34 | Cn1c(-c2c(F)cc(F)cc2F)c(-c2cccc(F)c2Cl)cc(Br)c1=O [Compound 503] | H (H shows more than 50% of control values) | L (L shows 50% or less of control values) | –
35 | CCn1c(-c2c(F)cc(F)cc2F)c(-c2cccc(F)c2Cl)cc(C)c1=O [Compound 501] | H (H shows more than 50% of control values) | H (H shows more than 50% of control values) | –
36 | COCn1c(-c2c(F)cccc2F)c(-c2cc(OC)ccc2Cl)ccc1=O [Compound 402] | H (H shows more than 50% of control values) | L (L shows 50% or less of control values) | –
37 | CCn1c(-c2c(F)cccc2F)c(-c2cccc(Cl)c2)ccc1=O [Compound 171] | – | – | Test A control value (Magnaporthe grisea; Blast on rice): H (H shows more than 50% of control values); Test F control value (Phytophthora infestans; [3]): L (L shows 50% or less of control values)

Like-named read-outs stand apart in the source and are kept apart here.
